Reference: PMC4336329 (PLoS ONE, 2015)
The whole screen tested about 310,000 compounds, of which about 14,000 (4.5%) showed an effect of 50% or more. Effects have a minus sign here. This is one part of the list.

What follows are molecules tested against human ether-à-go-go-related gene (hERG) potassium channel (human, UniProt Q12809) (assay: primary screen, population patch clamp on CHO cells stably expressing hERG).
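Note: peak tail current of the secondary pulse compared with the same well before compound.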

human ether-à-go-go-related gene (hERG) potassium channel, sequence (Q12809 whole entry, looked up): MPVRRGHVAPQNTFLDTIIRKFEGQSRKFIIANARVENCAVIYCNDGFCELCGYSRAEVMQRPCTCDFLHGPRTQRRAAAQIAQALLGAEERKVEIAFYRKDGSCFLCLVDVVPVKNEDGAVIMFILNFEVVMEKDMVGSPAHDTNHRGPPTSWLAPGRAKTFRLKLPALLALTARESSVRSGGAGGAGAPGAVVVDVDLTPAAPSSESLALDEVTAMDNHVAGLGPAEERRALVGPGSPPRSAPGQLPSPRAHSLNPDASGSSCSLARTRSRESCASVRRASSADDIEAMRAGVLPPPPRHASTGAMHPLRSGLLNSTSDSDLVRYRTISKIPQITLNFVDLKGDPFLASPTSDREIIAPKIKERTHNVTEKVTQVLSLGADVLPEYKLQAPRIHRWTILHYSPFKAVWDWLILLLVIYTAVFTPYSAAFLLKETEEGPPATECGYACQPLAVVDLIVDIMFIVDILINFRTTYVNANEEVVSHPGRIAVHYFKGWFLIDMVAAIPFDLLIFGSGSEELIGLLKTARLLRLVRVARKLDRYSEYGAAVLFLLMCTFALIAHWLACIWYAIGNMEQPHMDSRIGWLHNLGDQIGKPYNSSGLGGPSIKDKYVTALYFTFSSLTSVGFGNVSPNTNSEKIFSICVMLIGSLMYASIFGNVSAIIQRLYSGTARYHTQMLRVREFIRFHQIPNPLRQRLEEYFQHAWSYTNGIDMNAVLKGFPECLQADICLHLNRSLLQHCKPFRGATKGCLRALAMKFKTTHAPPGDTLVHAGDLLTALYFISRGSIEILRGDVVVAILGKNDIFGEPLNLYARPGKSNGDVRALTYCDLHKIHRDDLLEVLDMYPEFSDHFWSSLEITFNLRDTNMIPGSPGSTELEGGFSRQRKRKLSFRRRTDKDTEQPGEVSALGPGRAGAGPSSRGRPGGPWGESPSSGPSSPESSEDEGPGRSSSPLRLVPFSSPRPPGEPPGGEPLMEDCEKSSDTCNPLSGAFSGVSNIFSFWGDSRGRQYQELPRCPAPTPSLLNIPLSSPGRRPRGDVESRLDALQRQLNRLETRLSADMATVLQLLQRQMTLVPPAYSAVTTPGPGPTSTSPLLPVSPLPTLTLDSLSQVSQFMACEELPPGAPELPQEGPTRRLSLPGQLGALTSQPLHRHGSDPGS

SMILES	hERG current change (%, negative = inhibition) at 10uM [%]
CCN(C(=O)c1cc2c(s1)-c1ccccc1S(=O)(=O)C2)c1cc(OC)ccc1OC	-36.1
CCOc1ccccc1N1CCN(Cc2cc3c(cc2[N+](=O)[O-])OCO3)CC1	-20.6
COCCN(Cc1ccc(C)c(Br)c1)C(=O)Cn1cnc(S(=O)(=O)N2CCCC2)c1	-18.2
O=C1CC(c2ccccc2)CC(O)=C1C=NCc1ccc(Cl)cc1 (stereo not shown)	9.85
Cc1ccc(S(=O)(=O)N2CCC(N3CCN(C)CC3)CC2)cc1Cl.O=C(O)C(=O)O	-13.8
O=C(Nc1cccc(-c2nc3ncccc3o2)c1)c1ccco1	-21.8
Cc1ccc2cccc(NC(=O)C(F)(F)F)c2n1	2.72
CCOC(=O)N1CCN(C(=O)Cn2nc(C)n3nc(-c4ccccc4)cc3c2=O)CC1	-4.44
Cc1ccc(C)c(OCCC(=O)OCC(=O)NNC(=O)c2ccccc2)c1	1.24
CC1CCN(S(=O)(=O)c2ccc3c(c2)oc(=O)n3CC(=O)N2CCc3ccccc3C2)CC1	6.8
COc1cccc(CC(CC(=O)O)C(=O)Nc2cc(C)ccc2C)c1 (stereo not shown)	8.93
O=C(Nc1ccc(S(=O)(=O)N2CCOCC2)cc1)c1ccc(Cl)cc1	-30.4
COc1ccc(C2=NOC(C(=O)NC(C)(C)C)C2)cc1 (stereo not shown)	-10
O=C(Nc1ccncc1)c1cccn(Cc2ccccc2)c1=O	-55.8
C=CCn1c(SCC(=O)NC2CCS(=O)(=O)C2)nc2sc(CC)cc2c1=O (stereo not shown)	-47.8
CCCCn1c(=O)c(C(=O)Nc2ccc(C)cn2)c(O)c2ccccc21	20.4
Cn1cc([N+](=O)[O-])c(C(=O)NNC(=O)c2ccc([N+](=O)[O-])cc2Cl)n1	15.9
Cc1ccc(NC(=S)N2CCCC2)cc1Cl	11.5
CCC(=O)N=c1sc2cc(F)cc(F)c2n1C	6.06
Oc1ccccc1/C=N/c1c(-c2ccco2)nc2ccccn12	-4.17

SMILES	hERG current change (%, negative = inhibition) at 10uM [%]
CCc1ccc(NC(=O)c2cnc3scc(C)n3c2=O)cc1	-17.1
CCCCCCC1NC(C(=O)O)CS1 (stereo not shown)	-0.451
COc1ccc([N+](=O)[O-])cc1NC(=S)NC(C)=O	-11.2
Cc1nc2c3ccccc3n(CC(=O)c3ccc(F)cc3)c(=O)n2n1	-1.34
O=C(COc1ccc([N+](=O)[O-])cc1)NCc1cccnc1	-33.4
Cl.OC(c1ccccc1)(C1CCCCC1)C(CN1CCOCC1)c1ccccc1 (stereo not shown)	-12.5
C1CCC2S[C@H]3CCCCC3NC2C1 (stereo partly shown)	13.5
Fc1ccc(C2=Nn3c(nnc3-c3n[nH]c4c3CCC4)SC2)cc1	-4.36
CCn1c(CN2C(=O)CSc3ccccc32)n[nH]c1=S	-3.82
CC(NC(=O)NNC(N)=S)(C(F)(F)F)C(F)(F)F	4.68
O=C(Nc1nc2ccccc2n1CCOc1ccc(Cl)cc1)c1ccco1	-3.34
COc1cc(NC(=S)NC(C)=O)ccc1NC(=O)C(C)C	-2.88
COc1ccc([N+](=O)[O-])cc1C(=O)C(=O)c1ccccc1	8.56
CCOCCn1c(=NC(=O)/C=C/c2ccccc2Cl)sc2cc(NC(C)=O)ccc21	-0.453
O=C(NCc1ccco1)c1ccc2c(=O)n(-c3ccccc3)c(=O)n(Cc3cccc(F)c3)c2c1	-4.93
C#CC[N+](C)(C)CC#Cc1ccc(Cl)cc1.[Br-]	0.00248
O=C(NNC(=O)c1cccs1)c1ccncc1	29.7
CCOC(=O)Cc1csc(NC(=O)NC2(C(F)(F)F)Oc3ccccc3O2)n1	5.19
COc1ccc(/C=N/NC(=O)c2ccc(N(C)S(=O)(=O)c3ccccc3)cc2)c(OC)c1	6.66
CCCC(=O)Nc1ccc(C(=O)N/N=C/c2cccnc2)cc1	-8.24

SMILES	hERG current change (%, negative = inhibition) at 10uM [%]
CC(C)N(Cc1nc2ccccc2[nH]1)C(C)C	2.07
CC(C)(C)C(C(=O)O)N1CCS(=O)(=O)CC1 (stereo not shown)	12.3
CS(=O)(=O)c1ccc2nc(NC(=O)CCC(=O)c3cccs3)sc2c1	1.07
CCOC(=O)c1cnc(Nc2nc3ccccc3o2)nc1CSC(=S)N(CC)CC	13.3
CCOc1ccc(-n2c(-c3ccccc3)c[nH]c2=S)cc1	20.6
CCOc1ccccc1NC(=O)CCc1ccc(C)o1	-3.46
CCOC(=O)C1(Cc2ccccc2C)CCCN(C(=O)CCC(=O)OC)C1 (stereo not shown)	14.9
O=C(CSc1nc(-c2ccccc2Cl)ns1)Nc1ccc2c(c1)OCO2	-13.4
Cc1cc(C)n(-c2cc(C(C)(C)C)nc3c(-c4ccccc4)cnn23)n1	14.6
O=C(NNC(=S)NC(=O)c1cccnc1)c1ccccc1	11.3
CCC(C)(C)NC(=O)CN(C(=O)C(=O)Nc1ccc2c(c1)OCCO2)C1CC1	15.4
N/C(=N\OC(=O)c1ccc(Br)cc1)c1ccccc1	4.79
CS/C(=C\C(=O)c1ccco1)Nc1ccccc1Cl	3.23
O=C1/C(=C\c2ccccn2)SC(=S)N1c1ccc(S(=O)(=O)Nc2nccs2)cc1	-12.1
CCOCCCNC(=O)C(NC(=O)Cc1cccs1)c1ccc(C)cc1 (stereo not shown)	8.53
CCOc1cc(S(=O)(=O)NCc2ccccc2)ccc1F	-10.3
CCOC(=O)c1c(C)nc2ncccn12	-5.18
CCNC(=S)Nc1cccc([N+](=O)[O-])c1	-2.24
